# Some of the results follow.
# B1: B160 (Bifidobacterium sp) (protein)
# chain: MVSHNKRIVAALAAVAAMGIGLAGCGGSDTAGDTKSGSDGGVVNITYMHRLPDSEGMTLVNDIVAKWNKEHPNIQVKATKFDGNAADMIKKLETDVKAGNAPDLAQVGYAEVPEVFTKGLLQDVTDEAAKYKDDFASGPFALMQVDGKTYGLPQDTGPLTYFYNAAEFEKLGITVPKTADELIETAKKTAAQGKYIMTFTPDEAMMMMSGQAGASGPWYKVDGNSWVVNTQTKGSKAVADVYQQLIDNKAALTNPRWDASFDNSIQSGQLIGTVAAAWEAPLFIDSAGGTGAGEWKVTQLGDWFGNGTKTGANGGSGVAVLKGSKHPAEAMEFLDWFNTQVDDLVSQGLVVAATTADAKTPQKWSDYFSGQDVMAEFKTANDNMGDFTYMPGFSAVGAAMKQTAAKAADGSAKVSDVFDTAQKTSVDTLKNLGLSVKE
# Experiments:
# Assay in all cases: glycan array binding signal (z-score within array); higher = stronger binding
# Conditions in all cases: glycan notation: IUPAC condensed, linker removed
# Gal(b1-2)Gal = molecular target: Gal(b1-2)Gal
# How it was run: (§1)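 Glycan array data were curated from 3228 arrays in the Consortium for Functional Glycomics database and kept only where the protein sequence was available. Glycan names were converted to IUPAC-condensed notation, and columns mapping to the same glycan were averaged. The binding signal is a within-array Z-score, averaged across arrays of the same protein sequence at different concentrations or buffers and across linkers. Negative Z-scores can be read as non-binding.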
# Gal(b1-3)Gal = molecular target: Gal(b1-3)Gal
# How it was run: as §1
# Gal(b1-3)Gal(b1-4)GlcNAc = molecular target: Gal(b1-3)Gal(b1-4)GlcNAc
# How it was run: as §1
# Gal(b1-3)GalNAc = molecular target: Gal(b1-3)GalNAc
# How it was run: as §1
# [1] = molecular target: Gal(b1-3)GalNAc(a1-3)[Fuc(a1-2)]Gal(b1-4)Glc
# How it was run: as §1
# [2] = molecular target: Gal(b1-3)GalNAc(a1-3)[Fuc(a1-2)]Gal(b1-4)GlcNAc
# How it was run: as §1
# Gal(b1-3)GalNAc(b1-3)Gal = molecular target: Gal(b1-3)GalNAc(b1-3)Gal
# How it was run: as §1
# [3] = molecular target: Gal(b1-3)GalNAc(b1-3)Gal(a1-4)Gal(b1-4)Glc
# How it was run: as §1
# [4] = molecular target: Gal(b1-3)GalNAc(b1-4)Gal(b1-4)Glc
# How it was run: as §1
# [5] = molecular target: Gal(b1-3)GalNAc(b1-4)[Neu5Ac(a2-3)]Gal(b1-4)Glc
# How it was run: as §1
# Gal(b1-3)GlcNAc = molecular target: Gal(b1-3)GlcNAc
# How it was run: as §1
# [6] = molecular target: Gal(b1-3)GlcNAc(a1-3)Gal(b1-4)GlcNAc
# How it was run: as §1
# [7] = molecular target: Gal(b1-3)GlcNAc(a1-6)Gal(b1-4)GlcNAc
# How it was run: as §1
# Gal(b1-3)GlcNAc(b1-2)Man = molecular target: Gal(b1-3)GlcNAc(b1-2)Man
# How it was run: as §1
# [8] = molecular target: Gal(b1-3)GlcNAc(b1-2)Man(a1-3)[Gal(b1-3)GlcNAc(b1-2)Man(a1-6)]Man(b1-4)GlcNAc(b1-4)GlcNAc
# How it was run: as §1
# [9] = molecular target: Gal(b1-3)GlcNAc(b1-2)Man(a1-3)[Gal(b1-3)GlcNAc(b1-2)Man(a1-6)]Man(b1-4)GlcNAc(b1-4)[Fuc(a1-6)]GlcNAc
# How it was run: as §1
# [10] = molecular target: Gal(b1-3)GlcNAc(b1-2)Man(a1-3)[GlcNAc(b1-4)][Gal(b1-3)GlcNAc(b1-2)Man(a1-6)]Man(b1-4)GlcNAc(b1-4)GlcNAc
# How it was run: as §1
# [11] = molecular target: Gal(b1-3)GlcNAc(b1-2)[Gal(b1-3)GlcNAc(b1-6)]Man(a1-6)[Gal(b1-3)GlcNAc(b1-2)Man(a1-3)]Man(b1-4)GlcNAc(b1-4)GlcNAc
# How it was run: as §1
# [12] = molecular target: Gal(b1-3)GlcNAc(b1-3)Gal(b1-3)GlcNAc
# How it was run: as §1
# [13] = molecular target: Gal(b1-3)GlcNAc(b1-3)Gal(b1-4)Glc
# How it was run: as §1
# [14] = molecular target: Gal(b1-3)GlcNAc(b1-3)Gal(b1-4)GlcNAc
# How it was run: as §1
# [15] = molecular target: Gal(b1-3)GlcNAc(b1-3)Gal(b1-4)GlcNAc(b1-2)Man(a1-3)[Gal(b1-3)GlcNAc(b1-3)Gal(b1-4)GlcNAc(b1-2)Man(a1-6)]Man(b1-4)GlcNAc(b1-4)GlcNAc
# How it was run: as §1
# [16] = molecular target: Gal(b1-3)GlcNAc(b1-3)Gal(b1-4)GlcNAc(b1-2)[Gal(b1-3)GlcNAc(b1-3)Gal(b1-4)GlcNAc(b1-6)]Man(a1-6)[Gal(b1-3)GlcNAc(b1-3)Gal(b1-4)GlcNAc(b1-2)Man(a1-3)]Man(b1-4)GlcNAc(b1-4)[Fuc(a1-6)]GlcNAc
# How it was run: as §1
# [17] = molecular target: Gal(b1-3)GlcNAc(b1-3)Gal(b1-4)GlcNAc(b1-3)Gal(b1-4)GlcNAc(b1-2)[Gal(b1-3)GlcNAc(b1-3)Gal(b1-4)GlcNAc(b1-3)Gal(b1-4)GlcNAc(b1-6)]Man(a1-6)[Gal(b1-3)GlcNAc(b1-3)Gal(b1-4)GlcNAc(b1-3)Gal(b1-4)GlcNAc(b1-2)Man(a1-3)]Man(b1-4)GlcNAc(b1-4)[Fuc(a1-6)]GlcNAc
# How it was run: as §1
# [18] = molecular target: Gal(b1-3)GlcNAc(b1-3)Gal(b1-4)GlcNAc(b1-6)[Gal(b1-3)GlcNAc(b1-3)]Gal(b1-4)Glc
# How it was run: as §1
# [19] = molecular target: Gal(b1-3)GlcNAc(b1-3)Gal(b1-4)[Fuc(a1-3)]GlcNAc
# How it was run: as §1
# [20] = molecular target: Gal(b1-3)GlcNAc(b1-3)Gal(b1-4)[Fuc(a1-3)]GlcNAc(b1-6)[Gal(b1-3)GlcNAc(b1-3)]Gal(b1-4)Glc
# How it was run: as §1
# [21] = molecular target: Gal(b1-3)GlcNAc(b1-3)GalNAc
# How it was run: as §1
# [22] = molecular target: Gal(b1-3)GlcNAc(b1-6)Gal(b1-4)GlcNAc
# How it was run: as §1
# [23] = molecular target: Gal(b1-3)GlcNAc(b1-6)GalNAc
# How it was run: as §1
# [24] = molecular target: Gal(b1-3)GlcNAc(b1-6)[Gal(b1-3)]GalNAc
# How it was run: as §1
# Gal(b1-3)GlcNAc6S = molecular target: Gal(b1-3)GlcNAc6S
# How it was run: as §1
# [25] = molecular target: Gal(b1-3)[Fuc(a1-4)]GlcNAc
# How it was run: as §1
# [26] = molecular target: Gal(b1-3)[Fuc(a1-4)]GlcNAc(b1-2)Man
# How it was run: as §1
# [27] = molecular target: Gal(b1-3)[Fuc(a1-4)]GlcNAc(b1-2)Man(a1-3)[Gal(b1-3)[Fuc(a1-4)]GlcNAc(b1-2)Man(a1-6)]Man(b1-4)GlcNAc(b1-4)[Fuc(a1-6)]GlcNAc
# How it was run: as §1
# [28] = molecular target: Gal(b1-3)[Fuc(a1-4)]GlcNAc(b1-3)Gal(b1-3)[Fuc(a1-4)]GlcNAc
# How it was run: as §1
# [29] = molecular target: Gal(b1-3)[Fuc(a1-4)]GlcNAc(b1-3)Gal(b1-4)[Fuc(a1-3)]GlcNAc
# How it was run: as §1
binder,measurement,setting,value
B1,glycan array binding signal (z-score),Gal(b1-2)Gal,-0.184
same,glycan array binding signal (z-score),Gal(b1-3)Gal,3.65
same,glycan array binding signal (z-score),Gal(b1-3)Gal(b1-4)GlcNAc,11.7
same,glycan array binding signal (z-score),Gal(b1-3)GalNAc,0.835
same,glycan array binding signal (z-score),[1],-0.053
same,glycan array binding signal (z-score),[2],-0.175
same,glycan array binding signal (z-score),Gal(b1-3)GalNAc(b1-3)Gal,6.25
same,glycan array binding signal (z-score),[3],-0.148
same,glycan array binding signal (z-score),[4],8.55
same,glycan array binding signal (z-score),[5],-0.169
same,glycan array binding signal (z-score),Gal(b1-3)GlcNAc,2.09
same,glycan array binding signal (z-score),[6],-0.206
same,glycan array binding signal (z-score),[7],-0.157
same,glycan array binding signal (z-score),Gal(b1-3)GlcNAc(b1-2)Man,-0.148
same,glycan array binding signal (z-score),[8],-0.111
same,glycan array binding signal (z-score),[9],-0.169
same,glycan array binding signal (z-score),[10],-0.118
same,glycan array binding signal (z-score),[11],-0.131
same,glycan array binding signal (z-score),[12],-0.156
same,glycan array binding signal (z-score),[13],4.36
same,glycan array binding signal (z-score),[14],4.98
same,glycan array binding signal (z-score),[15],5.11
same,glycan array binding signal (z-score),[16],8.35
same,glycan array binding signal (z-score),[17],6.21
same,glycan array binding signal (z-score),[18],5.45
same,glycan array binding signal (z-score),[19],-0.14
same,glycan array binding signal (z-score),[20],1.41
same,glycan array binding signal (z-score),[21],-0.161
same,glycan array binding signal (z-score),[22],-0.163
same,glycan array binding signal (z-score),[23],-0.152
same,glycan array binding signal (z-score),[24],-0.162
same,glycan array binding signal (z-score),Gal(b1-3)GlcNAc6S,6.55
same,glycan array binding signal (z-score),[25],-0.185
same,glycan array binding signal (z-score),[26],-0.128
same,glycan array binding signal (z-score),[27],-0.053
same,glycan array binding signal (z-score),[28],-0.141
same,glycan array binding signal (z-score),[29],-0.156

# From the supplement of paper PMC8728848
